The values that follow come from patent US20250092147A1 (PEPMAB B V, published 2025).

Test [1] has as its target human CCR7 (human) (UniProt P32248). The experiment in a line: FACS on healthy donor cells, membrane expressed CCR7; rank among the six variants (higher = better by the text).
Test [2] has the same target. In words: FACS on CLL sample 1, membrane expressed CCR7; rank among the six variants (higher = better by the text).
For test [3] the target is unchanged. In words: FACS on TPLL sample 1, membrane expressed CCR7; rank among the six variants (higher = better by the text).
Test [4] has the same target. In words: FACS on TPLL sample 3, membrane expressed CCR7; rank among the six variants (higher = better by the text).
For test [5] the target is unchanged. In words: FACS on CLL sample 3, membrane expressed CCR7; rank among the six variants (higher = better by the text).
Test [6] has the same target. In words: FACS on TPLL sample 2, membrane expressed CCR7; rank among the six variants (higher = better by the text).
Test [7] shares this target. In words: FACS on CLL sample 2, membrane expressed CCR7; rank among the six variants (higher = better by the text).

UniProt P32248, sequence (P32248 25-378): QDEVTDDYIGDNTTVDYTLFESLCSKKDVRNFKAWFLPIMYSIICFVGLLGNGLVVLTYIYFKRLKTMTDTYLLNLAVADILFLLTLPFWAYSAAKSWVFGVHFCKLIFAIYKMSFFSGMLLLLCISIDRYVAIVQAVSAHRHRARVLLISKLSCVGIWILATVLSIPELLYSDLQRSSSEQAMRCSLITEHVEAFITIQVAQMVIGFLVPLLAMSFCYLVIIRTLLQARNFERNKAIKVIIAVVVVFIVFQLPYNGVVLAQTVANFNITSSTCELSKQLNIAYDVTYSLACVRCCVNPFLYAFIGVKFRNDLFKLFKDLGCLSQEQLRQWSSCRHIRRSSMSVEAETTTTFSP

B1: humanized anti-CCR7 antibody variant 21-17 (antibody, human IgG1)
heavy: EVQLVESGGGLVKPGGSLRLSCAAPGLTFRDFAMSWVRQAPGKGLEWVSTISSGGFYTYYPDSVKGRFTISRDNAANSLYLQMNSLRAEDTAVYYCVRRAYRYDGTGDYSALDYWGQGTLVTVSS[human IgG1 constant region not given here]
VL: DIQMTQSPSSLSASVGDRVTITCRASQDIGPSLNWYQQKPGKAPKRLIYATSNLDSGVPSRFSGSGSGTDFTLTISSLQPEDFATYYCLQFASSPLTFGQGTKVEIK
B1 returned a ranking of relative performance, FACS HD in the test with human CCR7 (human) [1] of 1 rank. The molecule further displayed a ranking of relative performance, FACS CLL# 1 with human CCR7 (human) [2] of 2 rank. This molecule displayed a ranking of relative performance, FACS TPLL# 1 with human CCR7 (human) [3] of 2 rank. Further, the ranking of relative performance, FACS TPLL# 3 with human CCR7 (human) [4] came to 1 rank. For the same molecule, the ranking of relative performance, FACS CLL# 3 with human CCR7 (human) [5] was determined as 1 rank. The molecule also came in with a ranking of relative performance, FACS TPLL# 2 with human CCR7 (human) [6] of 2 rank. The molecule further came in with a ranking of relative performance, FACS CLL# 2 with human CCR7 (human) [7] of 1 rank.

B2: humanized anti-CCR7 antibody variant 21-AE (antibody, human IgG1)
heavy: EVQLVESGGGLVKPGGSLRLSCAAPGLTFRDFAMSWVRQAPGKGLEWVSTISSGGFYTYYPDSVKGRFTISRDNAANSLYLQMNSLRAEDTAVYYCVRRAYRYDGTGDYSALDYWGQGTLVTVSS[human IgG1 constant region with changes not given here]
VL: B1 VL
In turn, B2 yielded a ranking of relative performance, FACS HD with human CCR7 (human) [1] of 2 rank. In addition, the ranking of relative performance, FACS CLL# 1 with human CCR7 (human) [2] was determined as 1 rank. Further, the ranking of relative performance, FACS TPLL# 1 with human CCR7 (human) [3] was determined as 1 rank. Besides, the ranking of relative performance, FACS TPLL# 3 with human CCR7 (human) [4] was 2 rank. This molecule returned a ranking of relative performance, FACS CLL# 3 with human CCR7 (human) [5] of 2 rank. The molecule further showed a ranking of relative performance, FACS TPLL# 2 with human CCR7 (human) [6] of 1 rank. In the test with human CCR7 (human) [7], this molecule yielded a ranking of relative performance, FACS CLL# 2 of 2 rank.
